Measured values from PubChem BioAssay AID588855 (National Center for Advancing Translational Sciences (NCATS), 2011).
Out of some 410,000 compounds screened, about 5,000 (1.2%) were called active. The inconclusive results got no clear call from the source; some entries with a clear call stand among them for comparison. The call rests on the fitted dose curve; in most records, active means well fitted inhibition curve with a large enough effect; inconclusive means small, poorly fitted or top-dose-only effect; inactive means no such curve, though single readings can be large or run the other way. Where the call is inconclusive, the potency comes from a doubtful curve fit.

Assay: qHTS for Inhibitors of TGF-b; further: nearly all actives have a fitted effect of over 65% in size
Settings: HepG2 CAGA-GFP TGF-b/SMAD3 reporter, GFP fluorescence, 18 h, TGF-beta stimulated, 500 pg/mL final; series mostly up to 46.1 µM; activity, negative = inhibition: at the top concentration
Summary of the method: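 Read-out: total well GFP (ex488/em500-530) summed from mean per-cell fluorescence. Cells: HEPG2 CAGA-GFP, 1% FBS DMEM, 18 h at 37 degrees C with 500 pg/mL final TGF-beta. Unstimulated wells served as the full-inhibition control; stimulated DMSO wells = 0%.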
On the % scale 0 is the no-effect control and ±100 the full control effect; potency means the concentration at half of the fitted maximal effect; tags describe the fitted curve by direction and shape.

| SMILES | activity, negative = inhibition | Potency |
| --- | --- | --- |
| O=C1c2cccc(OCC(=O)N3CCCc4ccccc43)c2CCN1Cc1ccc(Br)cc1 | inactive: 0% |  |
| COC(=O)c1ccc(CSc2nc3ccccc3[nH]2)o1 | inactive: -8.86% |  |
| Cc1cc(C)nc(/N=C(\N)Nc2cccc(OCc3ccccc3)c2)n1 |  | inconclusive: 7.94 µM [inhibitor, partial curve, poor fit] |
| CCc1nn(CCCC(=O)N2CCN(c3cc(Cl)ccc3C)CC2)c(=O)c2cc3occc3n12 |  | inconclusive: 25.1 µM [inhibitor, partial curve, poor fit] |
| COc1cc(F)ccc1-c1csc(C(O)c2ccc(F)c(F)c2)n1 (configuration not stated) |  | inconclusive: 35.5 µM [inhibitor, single point] |
| COn1c2c(c3c4nonc4ccc31)CCCC2 |  | inconclusive: 4.47 µM [inhibitor, partial curve, poor fit] |
| CCCCOc1ccc(NC(=O)CSc2nnnn2C)cc1 | inactive: -6.14% |  |
| CCOc1ccc2nc(NC(=O)C3CCCN(S(=O)(=O)c4c(C)noc4C)C3)sc2c1 (configuration not stated) | inactive: 0.333% |  |
| COC(=O)C1=C[C@@H](C(=O)OC)C2C3=C(C(=O)[C@]2(CC(C)C)NC(=O)c2ccccc2)[C@H](C)n2c(=O)n(-c4ccccc4)c(=O)n2[C@@H]3C1 (some centres not stated) |  | inconclusive: 35.5 µM [inhibitor, partial curve, poor fit] |
| O=C(Nc1ccc(Br)cc1)N1CCCCC1 |  | inconclusive: 35.5 µM [inhibitor, partial curve, poor fit] |
| CCN(CC(=O)Nc1c(F)cccc1F)C(=O)c1ccc(S(=O)(=O)N2CCC(C)CC2)cc1 |  | inconclusive: 35.5 µM [inhibitor, single point] |
| N#Cc1cc(C(=O)c2ccccc2OCC(=O)Nc2ccccc2Cl)cn(C2CCCCC2)c1=O |  | inconclusive: 3.16 µM [inhibitor, single point] |
| CN1CCN(C(=O)c2ccc(S(=O)(=O)N(C)c3ccccc3)cc2)CC1 | inactive: 0.428% |  |
| Cc1ccc(Cl)cc1N1CCN(CC(=O)NC2CCCc3ccccc32)CC1 (configuration not stated) |  | inconclusive: 35.5 µM [inhibitor, single point] |
| CCCOc1ccc(-c2nc(N3CCCCC3)c3ccccc3n2)cc1 | inactive: 31% |  |
| Cc1nc(-c2ccc(S(=O)(=O)N3CCN(c4cccc(C)c4C)CC3)cc2)co1 |  | inconclusive: 35.5 µM [inhibitor, single point] |
| CCOC(=O)c1nc(Nc2ccccc2OC)c2ccccc2n1 |  | inconclusive: 7.94 µM [inhibitor, partial curve, poor fit] |
| COc1ccccc1-c1nc(SCc2ccccn2)n[nH]1 | inactive: -0.439% |  |
| COCc1c(C(=O)OCC(=O)c2c(N)n(CC(C)C)c(=O)n(C)c2=O)oc2ccccc12 |  | inconclusive: 0.112 µM [inhibitor, full curve, poor fit] |
| OCC1OC(n2cnc3c(/C=C(\O)c4ccccc4)ncnc32)C(O)C1O (configuration not stated) |  | inconclusive: 22.4 µM [inhibitor, single point] |
| CCN(C(=O)C1CCCN1S(=O)(=O)c1ccc2c(c1)n(C)c(=O)c(=O)n2C)c1ccccc1 (configuration not stated) |  | inconclusive: 3.55 µM [inhibitor, single point] |

| SMILES | activity, negative = inhibition | Potency |
| --- | --- | --- |
| CC(C)c1nnc(NC(=O)CC23CC4CC(CC(C4)C2)C3)s1 | inactive: -2.35% |  |
| CC1CCC(C(C)C)C(OC(=O)Cn2c(-c3ccc(Br)cc3)[n+](C)c3ccccc32)C1 (configuration not stated) |  | active: 12.6 µM |
| CCCCNC(=O)C1CC(c2c(Cl)cccc2Cl)=NO1 (configuration not stated) | inactive: -4.38% |  |
| CN(CC(=O)Nc1ccccc1Br)C(=O)c1cccc(S(=O)(=O)N2CCc3ccccc32)c1 | inactive: -13.4% |  |
| COc1ccc(-c2nc3c(-c4ccc(F)cc4)cnn3cc2C)cc1F | inactive: -13.6% |  |
| Cc1c(C(=O)Nc2ccc(F)c(Cl)c2)oc2ccc(S(=O)(=O)N(C)C3CCCCC3)cc12 |  | inconclusive: 6.31 µM [inhibitor, partial curve, poor fit] |
| Cc1ccc(-n2ncc(C(=O)Nc3ccc4c(c3)OCO4)c2C2CCN(C(=O)OC(C)(C)C)CC2)c(C)c1 |  | inconclusive: 12.6 µM [inhibitor, single point] |
| Cc1cc(C)c(NC(=O)CN2C(=O)NC3(CCCc4ccccc43)C2=O)c(Cl)c1 (configuration not stated) | inactive: -15.3% |  |
| COc1ccc2c(c1OC)C(=O)N(c1nccs1)C2 |  | inconclusive: 35.5 µM [inhibitor, single point] |
| Cc1oc2ccc(O)c(CN3CCCCC3)c2c1C(=O)Nc1cccc(C(F)(F)F)c1 |  | inconclusive: 35.5 µM [inhibitor, single point] |
| O=C(OCCCc1cc2ccccc2c(=O)o1)c1ccccc1C(F)(F)F |  | inconclusive: 11.2 µM [inhibitor, single point] |
| COc1cc(-c2noc(-c3ccc(NCc4ccco4)c([N+](=O)[O-])c3)n2)cc(OC)c1OC |  | inconclusive: 0.112 µM [inhibitor, full curve, poor fit] |
| CC1C(=O)Nc2ccc(S(=O)(=O)N3CCN(c4cccc(Cl)c4)CC3)cc2NC1=O (configuration not stated) |  | inconclusive: 15.8 µM [inhibitor, single point] |
| CCOc1ccc(S(=O)(=O)N2CCCC(C(=O)NCc3ccncc3)C2)cc1C (configuration not stated) |  | inconclusive: 11.2 µM [inhibitor, partial curve] |
| C=CCN1C(c2cccc(C(F)(F)F)c2)=CS/C1=C(/C#N)c1nnc(N2CCOCC2)n1-c1ccccc1 |  | inconclusive: 15.8 µM [inhibitor, single point] |
| CCOC(=O)C1=C(CNC(C)(C)CC(C)(C)C)NC(=O)NC1c1cccc([N+](=O)[O-])c1 (configuration not stated) |  | inconclusive: 17.8 µM [inhibitor, single point] |
| COc1cc(NC(=O)CCc2nc3cccnc3n2Cc2cccs2)cc(OC)c1OC |  | inconclusive: 0.501 µM [inhibitor, full curve, poor fit] |
| S=c1[nH]nc(-c2ccccc2Cl)n1CC1CCCO1 (configuration not stated) | inactive: -8.67% |  |
| Nc1c2c(nc3ccccc13)N(c1ccccc1)CC2 | inactive: 9.35% |  |
| COc1ccc(C(CNC(=O)COc2ccccc2C)N2CCOCC2)cc1 (configuration not stated) | inactive: 3.75% |  |
| COc1ccc(CNC(=O)c2ccc(NC(=O)CC3SC(N4CCCCC4)=NC3=O)cc2)cc1 (configuration not stated) |  | inconclusive: 31.6 µM [inhibitor, single point] |
